According to PubChem BioAssay (NCI):
Several values for one entry are separate records, joined by “and”; a condition that tells them apart may be missing. Equal entries are not always repeated.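 Step 1: Grow cells in 96-well plates. Step 2: Expose to compound for 48 hours at 5 concentrations. Step 3: Interpolate endpoints linearly; if unreached, use highest concentration. GI50 marks 50% less growth. TGI: total growth inhibition.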

What follows are molecules tested on NCI-H322M lung (assay: NCI anticancer screen, dose series, 48 h).

SMILES | TGI [µM] | GI50
O=C(O)c1ccc(CI)cc1 | 52.8 | 
NC1=C(NC(=O)Cc2ccccc2F)C(=O)c2ccccc2C1=O | > 100 | 
N#Cc1ccccc1C(Cl)(Cl)c1cnccn1 | > 100 | 
C/C(=N\N=C(\N)SB(F)F)c1ccc2ccccc2c1 | > 100 | 
CCOC(=O)c1c(N=P(c2ccccc2)(c2ccccc2)c2ccccc2)nnc(-c2ccccc2)c1-c1ccccc1 | > 100 | 
COc1cc(C(C)O)c(S(=O)(=O)CC(C)O)nn1 (stereo not given) | > 100 | 
O=C1/C(=C/c2cccc(Br)c2)COc2ccc(O)cc21 | 24.8 | 12.3 µM
CC1=C[C@H]2c3c([nH]c4ccccc34)C(c3c[nH]c4ccccc34)[C@H]2CC1 (stereo not given in full) | 22.9 | 
CN(C(=O)C12C3C4C5C3C1(C(=O)C13C6C7C8C6C1C8C73)C5C42)C(C)(C)C (stereo not given) | > 50 | 
Clc1ccc(C(c2ccccc2Cl)C(Cl)Cl)cc1 (stereo not given) | 37.4 | 
CSc1ccc(-c2cc(-c3nc4ccccc4[nH]3)no2)cc1 | > 100 | 
Cc1ccc(SC2C(=O)C3CC(OCc4ccccc4)C2(C)C3(C)C)cc1 (stereo not given) | > 100 | 
O=C(O)Cc1ccc(Nc2nc3cc(C(F)(F)F)ccc3nc2C(=O)O)cc1 | > 100 | 
COc1ccccc1C#Cc1ccccc1C#CCCCCO | 54.4 | 22.9 µM
COC/C=C\COC | > 100 | 
O=C(/C=C/c1ccc(-c2ccccc2)cc1)NCc1ccc(C(=O)NCc2ccccc2)cc1 | > 100 | 
CCOC(=O)Nc1nc2ccc(OC)cc2s1 | > 100 | > 100 µM
COc1ccc2nc(-c3ccccc3)cc(OCC(=O)O)c2c1 | > 100 | 
COc1ccc(-c2ccncc2)cc1C(N)=O | > 25 | > 25 µM
COc1cc2ncn(-c3cc(OCc4ccccc4C(F)(F)F)c(C(=O)N(C)C)s3)c2cc1OC | > 25 | > 25 µM
O=C1CC2CC3OC3[C@H]3c4cc5c(cc4C(=O)N1C23)OCO5 (stereo not given in full) | > 100 | 
CC(=O)OC12C3C4C1C1C2C3C41OC(C)=O (stereo not given) | > 100 | 
CO/N=C(/C)c1cccc(Nc2nc3ccccc3c3[nH]c4ccccc4c23)c1 | 8.11 | 
CCOC(=O)c1cc2cc3c4c(c2oc1=O)CCCN4CCC3 | > 100 | 
C=C(CC(NC(=O)c1ccc(C(CC)Cc2cnc3nc(N)nc(N)c3n2)cc1)C(=O)O)C(=O)O (stereo not given) | > 100 | > 100 µM
NC(=S)/N=C(/c1nc2ccc(Cl)cc2[nH]c1=O)C(O)c1ccccc1Cl (stereo not given) | > 100 | 

SMILES | TGI [µM] | GI50
CS(=O)(=O)CCNCc1cc(-c2cc3c(Nc4ccc(OCc5cccc(F)c5)c(Cl)c4)ncnc3s2)cs1 | > 25 | 7.59 µM
Cc1[nH]nc(C(F)(F)F)c1N=NN(C)C | 31.9 | 
Cc1ccc(NC(=O)CCc2nc(N)nc(N)c2-c2ccccc2)cc1C | > 100 | 
COc1cc2c(cc1OC)C(=O)N(c1ccc(O)cc1)C2=O | > 100 | 
C=C(C(=O)O)[C@@H]1C[C@@H]2O[C@H]1[C@@H](O)[C@@H](C)CCCC(C)=CCC[C@@]2(C)O | > 100 | 
N/N=C1\C(=O)N(C2CCCCCC2)C(=O)C1C(=O)NC1CCCCCC1 (stereo not given) | > 100 | 
COc1ccc(-n2[nH]nc(C(N)=O)c2=O)cc1 | > 100 | 
COc1ccc(C2OC(=O)c3ccc4ccccc4c32)c(C)c1 (stereo not given) | > 100 | 
CC[n+]1oc(C(=O)c2ccc(Cl)cc2)c(-c2ccccc2)c1-c1ccccc1.[Cl][Fe]([Cl])([Cl])[Cl] | > 100 | > 100 µM
NS(=O)(=O)c1ccc(-n2nc3c(c2-c2ccc(Cl)cc2)Cc2ccccc2-3)cc1 | 88.2 | 27.9 µM
NC(=O)N/N=C(/CC1C(=O)Oc2ccccc21)c1ccccc1O (stereo not given) | > 100 | 
[N-]=[N+]=NC1OC(=O)C(Cl)=C1N=P(c1ccccc1)(c1ccccc1)c1ccccc1 (stereo not given) | > 10 | 
CC1=C(C(=O)CC(=O)C(=O)Nc2cc(C)ccc2C)Sc2ccccc2N1 | > 100 | 
C=C1C(=O)O[C@H]2C[C@@]3(COC(C)=O)C=COC=C(COC(=O)C(C)C)C3CC12 (stereo not given in full) | > 100 | 
CN(CCCCCl)P(=O)(OCCS(=O)(=O)CC(NC(=O)CCC(N)C(=O)O)C(=O)NC(C(=O)O)c1ccccc1)OCC1OC(n2ccc(N)nc2=O)C(F)(F)C1O (stereo not given) | > 100 | 4.03 µM
COc1cc2c(c(OC)c1OC)-c1ncc3c(OC)c(OC)c(OC)cc3c1C2 | 56.1 | 17.6 µM
CCNc1cc(-c2cccc(OC(F)(F)F)c2)nc2ccc(N3CCCC3)cc12 |  | 2.75 µM
O=C(/C=C/c1ccccc1)C(Br)C(Br)c1ccccc1 (stereo not given) | 24.8 | 12.3 µM
COC(CN(C(C)=O)C1CCC2(SCCS2)c2[nH]c3ccccc3c21)OC (stereo not given) | > 100 | 
CN(C)CCNC(=O)c1ccc(NCCCN(C)CCCNc2ccc(C(=O)NCCN(C)C)c3[nH]c4ccccc4c(=O)c23)c2c(=O)c3ccccc3[nH]c12 | 0.436 | 
Nc1nonc1-c1nc2cnccc2n1C1CC1 | > 25 | 10.5 µM
Cc1nc(CC#N)n[nH]1 | > 100 | 
O=C(NOC[C@H](O)CO)c1ccc(F)c(F)c1Nc1ccc(I)cc1F | > 100 | 0.178 µM and 0.0663 µM
Cc1ccccc1OC(C)C(=O)NN1C(=O)CSC1c1ccc(Cl)cc1 (stereo not given) | 60.3 | 
O=C1c2ccccc2C(=O)c2cc(N=Nc3c(O)ccc4ccccc34)ccc21 | > 100 | 
